Data from article PMC4336329 (PLoS ONE, 2015).
Out of some 310,000 compounds screened, about 14,000 (4.5%) showed an effect of 50% or more. The effect is printed as a negative number. Some of the results follow.

Each molecule was assayed against human ether-à-go-go-related gene (hERG) potassium channel (human, UniProt Q12809) (assay: primary screen, population patch clamp on CHO cells stably expressing hERG).
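Also: peak tail current of the secondary pulse compared with the same well before compound.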

Chain of human ether-à-go-go-related gene (hERG) potassium channel (Q12809 whole entry, looked up): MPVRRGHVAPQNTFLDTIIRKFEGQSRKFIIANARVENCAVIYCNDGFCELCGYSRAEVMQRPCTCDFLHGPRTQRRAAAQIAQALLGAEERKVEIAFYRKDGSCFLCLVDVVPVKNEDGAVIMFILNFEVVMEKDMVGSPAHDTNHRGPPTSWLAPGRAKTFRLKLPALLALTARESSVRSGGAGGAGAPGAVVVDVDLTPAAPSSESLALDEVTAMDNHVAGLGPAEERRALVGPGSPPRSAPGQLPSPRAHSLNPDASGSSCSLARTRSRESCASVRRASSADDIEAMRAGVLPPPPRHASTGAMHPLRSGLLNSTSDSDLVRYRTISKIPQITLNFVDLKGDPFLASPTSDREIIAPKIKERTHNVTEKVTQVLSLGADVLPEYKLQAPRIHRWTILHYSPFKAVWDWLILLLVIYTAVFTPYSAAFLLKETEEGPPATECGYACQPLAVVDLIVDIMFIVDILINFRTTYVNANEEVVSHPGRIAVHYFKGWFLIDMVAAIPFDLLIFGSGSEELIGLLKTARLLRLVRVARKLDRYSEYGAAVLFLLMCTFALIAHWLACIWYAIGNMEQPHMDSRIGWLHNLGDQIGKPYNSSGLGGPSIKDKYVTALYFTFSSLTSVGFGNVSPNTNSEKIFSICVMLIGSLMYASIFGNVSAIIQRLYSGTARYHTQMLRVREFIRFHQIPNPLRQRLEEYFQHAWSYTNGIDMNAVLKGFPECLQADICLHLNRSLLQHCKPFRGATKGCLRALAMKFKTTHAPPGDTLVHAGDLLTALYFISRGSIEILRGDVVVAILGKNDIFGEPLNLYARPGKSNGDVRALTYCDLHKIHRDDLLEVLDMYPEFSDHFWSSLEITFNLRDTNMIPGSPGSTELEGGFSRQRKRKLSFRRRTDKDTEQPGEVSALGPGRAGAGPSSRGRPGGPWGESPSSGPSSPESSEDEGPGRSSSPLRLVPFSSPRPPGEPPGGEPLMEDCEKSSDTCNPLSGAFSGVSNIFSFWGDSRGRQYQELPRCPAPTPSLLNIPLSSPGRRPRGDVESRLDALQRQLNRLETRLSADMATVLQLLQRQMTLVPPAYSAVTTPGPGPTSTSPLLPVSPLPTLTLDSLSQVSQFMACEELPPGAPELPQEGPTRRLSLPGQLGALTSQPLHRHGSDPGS

SMILES	hERG current change (%, negative = inhibition) at 10uM [%]
N/C(=N\OC(=O)c1ccc2c(c1)OCO2)c1cccnc1	-2.28
CCOc1cc(C(=O)CCC(=O)OCC(=O)NC(=O)NCC(C)C)ccc1O	-20.3
CCOc1ccccc1C(=O)NC1CC2CCCC(C1)N2Cc1ccc(C)cc1 (centres unmarked)	-65.2
COC(=O)CSc1nc2nc(C)cc(C)n2n1	4.29
COc1ccc(/C=C2\C(=O)NC(=O)N(Cc3ccccc3)C2=O)c(OC)c1OC	3.19
O=C(CN1CCc2ccccc2C1)Nc1ccc(F)cc1	8.61
O=C(O)c1c(NC(=O)N2CCOCC2)sc2c1CCCC2	29.1
O=C(O)C[C@H]1c2cc(F)ccc2S(=O)(=O)N1C1CCCCC1	10.2
CC(C)(C)OC(=O)N/N=C/c1cccn1-c1ccc([N+](=O)[O-])cc1	-12.4
Cc1ccc(-n2nnnc2SCC(=O)NC(C(=O)O)(c2ccccc2)c2ccccc2)cc1C	29.8
COC(=O)/C(C(C)=O)=C(/C=C/C=C/N(C)C)N(C)C	13.3
COc1ccc(-c2ccc(C)cc2)cc1[C@H]1[C@@H]2C=CCC[C@@]2(C)C(=O)N1Cc1ccccc1	10.6
Cc1ccc2nc(SCC(=O)N3CCCCC3)nc(=O)n2c1	11.4
O=[N+]([O-])c1ccc(Sc2nnnn2-c2ccccc2)c(Cl)c1	-41
CN1CCN(c2ncnc3nc[nH]c23)CC1	18.5
O=C(NCCNc1ccccc1[N+](=O)[O-])c1cc(F)c(F)cc1Cl	-52.1
CS(=O)(=O)N(Cc1ccccc1)c1ccc(C(=O)NCc2cccnc2)cc1	-20.8
COc1ccc(CCNC(=O)c2ccncc2)cc1OC	4.62
CCOc1ccc(C(=O)NCC2CCCO2)cc1 (centres unmarked)	0.74
O=C(CNC(=O)c1ccc(Br)o1)NCCc1ccc(F)cc1	17.2
COc1ccc(CCC(=O)Nc2ccc3c(c2)OCCO3)cc1	3.14
Cc1cccc(N2C(=O)NC(=O)/C(=C\c3cnn(-c4ccccc4)c3)C2=O)c1	1.93

SMILES	hERG current change (%, negative = inhibition) at 10uM [%]
COc1ccc(CCNC(=O)c2ccc(=O)[nH]n2)cc1OC	3.35
CC(O)[C@H]1CNC(=O)C(=O)N1CCc1cccc2ccccc12 (some centres unmarked)	20.8
COc1ccc(OC)c(/C(C)=N/Nc2ccc(C(=O)O)cc2)c1.O=S(=O)(O)O	7.08
O=C(NN=C1CCCC1)c1ccc(O)cc1	17.7
COc1ccccc1OCC#CCn1ccnc1.O=C(O)C(=O)O	17.5
O=C(COC(=O)c1ccc(S(=O)(=O)N2CCOCC2)cc1)NC1CCCCCC1	7.29
Cc1ccc(C[n+]2ccccc2)cc1.[Br-]	20
O=C(Nc1ccc(F)cc1)c1ccc(Cn2cnnn2)cc1	0.645
O=C(Nc1cccc(NC(=O)c2ccc3c(c2)OCO3)c1)c1ccccc1	20
Cc1cc(N2C(=O)CCC2=O)ccc1NC(=O)c1cccs1	23.2
CCCn1c(N2CCN(S(=O)(=O)Cc3ccccc3)CC2)nc2ccccc21	4.46
Cc1cccc(COc2ccc(/C=N/NC(=O)c3nnn(-c4nonc4N)c3CN3CCCCC3)cc2)c1	7.63
O=C(CN1CCCCCC1)Nc1ccccc1C(=O)Nc1ccccc1	-11.9
CC(C)CCNC(=O)c1ccc(Cl)c(NC(=O)c2ccccc2F)c1	13.9
O=C(COc1ccc([N+](=O)[O-])cc1)N(Cc1cccs1)C1CCS(=O)(=O)C1 (centres unmarked)	-52.3
COCCCN(C(=O)Nc1ccccc1)C(C)c1ccncc1 (centres unmarked)	-12.2
COc1ccc(C(=O)NC(=S)N2CCCCC2)cc1	2.15
COc1cc(-c2noc(C)c2/C=C/c2ccc(OC(C)=O)cc2)cc(OC)c1OC	13
O=C(Nc1ccc(NC(=O)C2CCCCC2)cn1)c1ccco1	4.68
Cn1c(N2CCN(S(=O)(=O)c3ccc(F)cc3)CC2)nc2ccccc21	-3.73
C=CCON1C(=O)C(=O)N(OCC=C)[C@H]2CCCC[C@H]21	-3.99
O=C(Nc1nncs1)c1ccc(N2C(=O)C3C4C=CC(C4)C3C2=O)cc1 (centres unmarked)	19.8
